# The other results are listed elsewhere or left out.
# B1: PhoQ; a variant is named by its letters at X, in order, P23837 (parent)
# chain: MKKLLRLFFPLSLRVRFLLATAAVVLVLSLAYGMVALIGYSVSFDKTTFRLLRGESNLFYTLAKWENNKLHVELPENIDKQSPTMTLIYDENGQLLWAQRDVPWLMKMIQPDWLKSNGFHEIEADVNDTSLLLSGDHSIQQQLQEVREDDDDAEMTHSVAVNVYPATSRMPKLTIVVVDTIPVELKSSYMVWSWFIYVLSANLLLVIPLLWVAAWWSLRPIEALAKEVRELEEHNRELLNPATTRELTSLVRNLNRLLKSERERYDKYRTTLTDLTHSLKTPLXXLQXXLRSLRSEKMSVSDAEPVMLEQISRISQQIGYYLHRASMRGGTLLSRELHPVAPLLDNLTSALNKVYQRKGVNISLDISPEISFVGEQNDFVEVMGNVLDNACKYCLEFVEISARQTDEHLYIVVEDDGPGIPLSKREVIFDRGQRVDTLRPGQGVGLAVAREITEQYEGKIVAGESMLGGARMEVIFGRQHSAPKDE
# Variants of: B1
# Assay: enrichment ratio after two sorts for PhoP signalling (ratio (wild type AVST 3.29)); higher = more functional
# Settings: with PhoP (E. coli)
row,Variant,enrichment ratio
1,MGTR,≤ 0.25
2,WQLW,≤ 0.25
3,SCMP,≤ 0.25
4,RLHM,≤ 0.25
5,QYFH,≤ 0.25
6,MDKQ,≤ 0.25
7,MTEY,≤ 0.25
8,VVNR,≤ 0.25
9,YKPY,≤ 0.25
10,DTPL,≤ 0.25
11,LNWY,≤ 0.25
12,NSTV,≤ 0.25
13,TSSK,≤ 0.25
14,YRNF,≤ 0.25
15,WMFD,≤ 0.25
16,PYLR,≤ 0.25
17,GPLI,≤ 0.25
18,MWGL,≤ 0.25
19,YTMC,≤ 0.25
20,MTRW,≤ 0.25
21,LQSD,≤ 0.25
22,VFVI,≤ 0.25
23,IQHN,≤ 0.25
24,FTCS,≤ 0.25

row,Variant,enrichment ratio
1,YWFQ,≤ 0.25
2,DVFN,≤ 0.25
3,NLFA,≤ 0.25
4,QNTA,≤ 0.25
5,RQVL,≤ 0.25
6,LGSD,≤ 0.25
7,QFLH,≤ 0.25
8,TIKG,≤ 0.25
9,LVKQ,≤ 0.25
10,YDYS,≤ 0.25
11,MAAT,≤ 0.25
12,HNCS,≤ 0.25
13,DSCA,≤ 0.25
14,LDKF,≤ 0.25
15,ENLA,≤ 0.25
16,DLSR,≤ 0.25
17,GYWR,≤ 0.25
18,VALD,≤ 0.25
19,MTIS,≤ 0.25
20,QNSR,≤ 0.25
21,NWYV,≤ 0.25
22,WNLA,≤ 0.25
23,PFIN,≤ 0.25
24,GHPN,≤ 0.25

row,Variant,enrichment ratio
1,LQYD,≤ 0.25
2,KTST,≤ 0.25
3,GQPR,≤ 0.25
4,YFMQ,≤ 0.25
5,RWYI,≤ 0.25
6,VKDM,≤ 0.25
7,DPSD,≤ 0.25
8,KLQY,≤ 0.25
9,RESG,≤ 0.25
10,MYLI,0.312
11,HGPM,≤ 0.25
12,LQQK,≤ 0.25
13,IFFG,≤ 0.25
14,AANR,≤ 0.25
15,PCNQ,≤ 0.25
16,MEVR,2.31
17,RKMP,≤ 0.25
18,LNKF,≤ 0.25
19,RQIY,≤ 0.25
20,VSHR,≤ 0.25
21,VETH,≤ 0.25
22,MTRK,≤ 0.25
23,HCFM,≤ 0.25
24,HGCM,≤ 0.25

row,Variant,enrichment ratio
1,RGAC,≤ 0.25
2,HQFT,≤ 0.25
3,KRAR,≤ 0.25
4,PDMD,≤ 0.25
5,TMSC,10.9
6,MPSM,≤ 0.25
7,NWLP,≤ 0.25
8,KLRK,≤ 0.25
9,IHRY,≤ 0.25
10,FEMA,≤ 0.25
11,FVTK,≤ 0.25
12,WGWR,≤ 0.25
13,IWRM,≤ 0.25
14,NAYV,≤ 0.25
15,VCFN,≤ 0.25
16,LGAA,≤ 0.25
17,AAGG,≤ 0.25
18,KQLE,≤ 0.25
19,SETR,0.48
20,KANM,≤ 0.25
21,FKKH,≤ 0.25
22,FIGQ,≤ 0.25
23,KNLV,≤ 0.25
24,EYGH,≤ 0.25

row,Variant,enrichment ratio
1,TRIL,5.95
2,TCLH,1.39
3,ELPR,≤ 0.25
4,PHLF,≤ 0.25
5,VLMN,≤ 0.25
6,LNLV,≤ 0.25
7,NSDF,≤ 0.25
8,IRCW,≤ 0.25
9,LIAS,≤ 0.25
10,HDQY,≤ 0.25
11,APQQ,≤ 0.25
12,YWNY,≤ 0.25
13,ICNS,≤ 0.25
14,WQQN,≤ 0.25
15,CIWI,≤ 0.25
16,PKTT,≤ 0.25
17,YSVI,4.17
18,PSFS,≤ 0.25
19,WKDC,≤ 0.25
20,KFCT,≤ 0.25
21,SSKL,≤ 0.25
22,SHNM,3.62
23,YLNQ,≤ 0.25
24,MVSY,≤ 0.25

row,Variant,enrichment ratio
1,PSGF,≤ 0.25
2,GIAV,9.01
3,LSEM,≤ 0.25
4,WNLN,≤ 0.25
5,IFAC,≤ 0.25
6,KMGE,≤ 0.25
7,FIHT,≤ 0.25
8,QSSI,4.18
9,QHTR,≤ 0.25
10,EEMF,≤ 0.25
11,IRCI,≤ 0.25
12,TTCK,5.62
13,IREY,≤ 0.25
14,RTIC,≤ 0.25
15,QPMS,≤ 0.25
16,NWGD,≤ 0.25
17,WNAQ,≤ 0.25
18,ALPM,≤ 0.25
19,EQFK,≤ 0.25
20,TKRV,≤ 0.25
21,SIFT,≤ 0.25
22,GETH,≤ 0.25
23,FHTV,≤ 0.25
24,PFYY,≤ 0.25

row,Variant,enrichment ratio
1,RVYE,≤ 0.25
2,WMVM,≤ 0.25
3,NKPG,≤ 0.25
4,YFCP,≤ 0.25
5,EAPQ,≤ 0.25
6,MWID,≤ 0.25
7,LFDF,≤ 0.25
8,ELGV,≤ 0.25
9,KKWC,≤ 0.25
10,DVPH,≤ 0.25
11,AQLL,9.66
12,SCKS,≤ 0.25
13,TAWC,11.3
14,FSHP,≤ 0.25
15,INQY,≤ 0.25
16,VQYP,≤ 0.25
17,TVVM,≤ 0.25
18,QHQN,≤ 0.25
19,FRSA,≤ 0.25
20,RWRV,≤ 0.25
21,QWHL,≤ 0.25
22,QWSN,≤ 0.25
23,TANF,7.67
24,WMLW,≤ 0.25

row,Variant,enrichment ratio
1,QSEM,≤ 0.25
2,YEQS,≤ 0.25
3,TVVC,≤ 0.25
4,PHKR,≤ 0.25
5,IRND,≤ 0.25
6,LKPH,≤ 0.25
7,SRWY,≤ 0.25
8,QRIF,≤ 0.25
9,VFFA,≤ 0.25
10,MARM,≤ 0.25
11,QIIA,≤ 0.25
12,WDWY,≤ 0.25
13,FRQH,≤ 0.25
14,IFPG,≤ 0.25
15,LFFT,≤ 0.25
16,ILKT,≤ 0.25
17,GMHK,≤ 0.25
18,DQGD,≤ 0.25
19,MGHH,≤ 0.25
20,QSTK,≤ 0.25
21,HNYE,≤ 0.25
22,ISCP,≤ 0.25
23,QISR,≤ 0.25
24,HGNN,≤ 0.25

row,Variant,enrichment ratio
1,DDEY,≤ 0.25
2,QTWS,≤ 0.25
3,HPTI,≤ 0.25
4,ANEC,≤ 0.25
5,FQPY,≤ 0.25
6,RRNL,≤ 0.25
7,AVPQ,≤ 0.25
8,TPGR,≤ 0.25
9,YRKA,≤ 0.25
10,DSTY,≤ 0.25
11,DVCT,≤ 0.25
12,DENG,≤ 0.25
13,YGRS,0.285
14,QAWP,≤ 0.25
15,IQWW,≤ 0.25
16,DISQ,≤ 0.25
17,GYWP,≤ 0.25
18,MKIH,≤ 0.25
19,GRNR,≤ 0.25
20,FTFG,≤ 0.25
21,ADRA,≤ 0.25
22,HVIL,≤ 0.25
23,QFRM,≤ 0.25
24,IGWK,≤ 0.25

row,Variant,enrichment ratio
1,LEGP,≤ 0.25
2,FPTA,≤ 0.25
3,EHYN,≤ 0.25
4,PVIY,≤ 0.25
5,PRIN,≤ 0.25
6,LCRN,≤ 0.25
7,EERP,≤ 0.25
8,SNGE,1.67
9,AFMG,19.5
10,WPNL,≤ 0.25
11,RCKK,≤ 0.25
12,REHL,≤ 0.25
13,DRGG,≤ 0.25
14,AREI,≤ 0.25
15,WLMC,≤ 0.25
16,NVSL,≤ 0.25
17,MAPA,≤ 0.25
18,NPSD,≤ 0.25
19,TSYP,≤ 0.25
20,VLLM,0.26
21,KNNQ,≤ 0.25
22,NAAN,≤ 0.25
23,QPSY,≤ 0.25
24,DMTF,≤ 0.25

row,Variant,enrichment ratio
1,NRRL,≤ 0.25
2,RVIH,≤ 0.25
3,GMDY,≤ 0.25
4,AICT,18
5,QDAH,≤ 0.25
6,TMLP,≤ 0.25
7,GKTY,≤ 0.25
8,EDCG,≤ 0.25
9,AQLG,18.8
10,ARHH,≤ 0.25
11,PFED,≤ 0.25
12,FKIT,≤ 0.25
13,LYWP,≤ 0.25
14,QQSS,1.45
15,ILSG,≤ 0.25
16,VVYY,≤ 0.25
17,SWRK,≤ 0.25
18,DADG,≤ 0.25
19,GKEF,≤ 0.25
20,RGCH,≤ 0.25
21,MHNP,≤ 0.25
22,HGPQ,≤ 0.25
23,CLVF,≤ 0.25
24,FLHC,≤ 0.25

row,Variant,enrichment ratio
1,MNER,≤ 0.25
2,RVQD,≤ 0.25
3,AKAY,13.6
4,YHIP,≤ 0.25
5,PNHH,≤ 0.25
6,RVDF,≤ 0.25
7,VPML,≤ 0.25
8,SAIK,≤ 0.25
9,VCWQ,≤ 0.25
10,NNSA,≤ 0.25
11,VHFS,≤ 0.25
12,HYRN,≤ 0.25
13,FFQI,≤ 0.25
14,PRHF,≤ 0.25
15,MHLN,≤ 0.25
16,DGIR,≤ 0.25
17,HCVR,≤ 0.25
18,LGHK,≤ 0.25
19,GMRN,≤ 0.25
20,QPDY,≤ 0.25
21,LVWH,≤ 0.25
22,HQEF,≤ 0.25
23,GETF,≤ 0.25
24,MFTS,≤ 0.25

row,Variant,enrichment ratio
1,SAWG,≤ 0.25
2,WVKY,≤ 0.25
3,HHQA,≤ 0.25
4,AKQF,≤ 0.25
5,KFVW,≤ 0.25
6,QLFR,≤ 0.25
7,WGCK,≤ 0.25
8,TATC,7.1
9,HRYN,≤ 0.25
10,NSWW,≤ 0.25
11,AWSA,≤ 0.25
12,RCKW,≤ 0.25
13,MDDK,≤ 0.25
14,ENQD,≤ 0.25
15,WCAP,≤ 0.25
16,QEQI,≤ 0.25
17,QEPH,≤ 0.25
18,WSGQ,≤ 0.25

# Reference: a collection of fitness landscapes (doi:10.1126/science.1257360)
